The labels stand for the following.
B1: CPEB3 Ribozyme (parent)
chain: UAACAGGGGGCCACAGCAGAAGCGUUCACGUCGCAGCCCCUGUCAGAUUCUGGUGAAUCUGCGAAUUCUGCUGUAUAUCUC

The source gives no read counts; variants with many changes may rest on few reads.

Variants of B1 are the subject of this data set. Put plainly: self-cleavage, relative activity (ratio to wild type); higher = more cleavage; in vitro, sequencing. The method in brief: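 Relative activity was defined as the cleaved/total read fraction for a variant divided by the same fraction for the unmutated ribozyme. CPEB3 self-cleaving ribozyme libraries were made by rounds of error-prone PCR, barcoded, and transcribed in vitro with T7 RNA polymerase for 5 hours at 37°C, and cleavage ran through transcription plus a 15 min DNase I step before EDTA. Illumina sequencing of template-switched reverse transcripts gave the reads, and DNA sequencing mapped the barcodes. Averages come from three batches, using variants with at least 5 reads.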
For the variant G6A A18G A21C U31A U51C, the self-cleavage turned out to be 0.29.

As for G6A G55C U72C C81U, the self-cleavage turned out to be 0.11.

Take G6A A35U C38G U72C: the self-cleavage amounted to 0.14.

On to G6A G9C C27A, for which the self-cleavage turned out to be 0.25.

On to G6A A15G A21G A28C, for which the self-cleavage turned out to be 0.05.

With G6A A15G U48C, the self-cleavage was 0.08.

G6A A28U A64C: the self-cleavage was found to be 0.22.

With A5U U54C C71U U72C, the self-cleavage worked out at 1.01.

Turning to G6A C14U C23G U25A C59G U80C, the self-cleavage was 0.05.

For G6A C11A A15C C38A U67C, the self-cleavage was determined as 0.37.

Regarding G6A C14U A20U, the self-cleavage amounted to 0.04.

A5U U51C U69C: the self-cleavage was determined as 0.88.

As to G6A C23U U25C A45U C62A U67C, the self-cleavage came out at 0.05.

For the variant A5U U58C U72A, the self-cleavage amounted to 0.68.

For the variant G6A A15U A21G G42A U48C A57G, the self-cleavage was 0.04.

Take G6A G7C A18G G30A C40U U72A: the self-cleavage stood at 0.

On to G6A A18U A64G A65G, for which the self-cleavage came to 0.03.

For the variant G6A A21G U60C U72C U74C, the self-cleavage was found to be 0.23.

G6A A15U U26A U43C U60C: the self-cleavage came to 0.05.

As for G6A G19U U43A, the self-cleavage came out at 0.3.

With G6A A35U U54C A75G U80C, the self-cleavage was found to be 0.09.

Regarding G6A A18U A21G C68A, the self-cleavage came to 0.17.

Turning to G6A A15G A45G A56G G63U, the self-cleavage is 0.27.

Turning to G6A A35G A65C U72A, the self-cleavage was determined as 0.25.

Consider G6A A21G U41C G46A U60C U72C, for which the self-cleavage came out at 0.07.

Consider A5U U58C C68A, for which the self-cleavage was 0.45.

For G6A C23G U25C U41C G52A, the self-cleavage came to 0.06.

Regarding G6A A15G A45G U66C, the self-cleavage was determined as 0.17.

As to G6A A13G U25C, the self-cleavage was determined as 0.37.

On to G6A C12G A13G, for which the self-cleavage turned out to be 0.44.

In the case of G6A A21G G63U, the self-cleavage stood at 0.28.

Regarding G6A A21G G52C A56G, the self-cleavage turned out to be 0.27.

Take G6A A35U A45G U78C: the self-cleavage was 0.06.

Turning to G6A A15G U60C, the self-cleavage came to 0.22.

For the variant G6A A18G U25G U66C G70C A75U, the self-cleavage was 0.04.

Turning to G6A G10A C23A A35U U72C, the self-cleavage came to 0.08.

Consider G6A A15U A28C U80A, for which the self-cleavage amounted to 0.23.

In the case of G6A A45G A56G, the self-cleavage was determined as 0.07.

For G6A A15U U41A U49C U58A, the self-cleavage stood at 0.25.

G6A C50A U80C: the self-cleavage was 0.34.

Regarding G6A A13U A21U C32U A47G, the self-cleavage was 0.01.

Turning to G6A G61A U67A C68A, the self-cleavage was 0.13.

Regarding G6A A45G U78C, the self-cleavage stood at 0.33.

On to G6A A18G A45U U54C, for which the self-cleavage amounted to 0.3.

Consider A5U U58C U69A, for which the self-cleavage amounted to 0.34.

In the case of G6A A15G A18G A45G U69C A75U, the self-cleavage is 0.18.

For the variant G6A C12A U48C U76C, the self-cleavage turned out to be 0.19.

For G6A A15G A56G A75G, the self-cleavage came out at 0.14.

In the case of G6A C12G A15G C29U A35G U72C, the self-cleavage stood at 0.05.

For G6A A21G G30A U31A U66G A75G, the self-cleavage was found to be 0.1.

Take G6A G7U A15U U26C U72C: the self-cleavage came out at 0.35.

Regarding G6A G19U U43A U66C, the self-cleavage is 0.05.

With G6A A13U U49G A57G, the self-cleavage came to 0.07.

In the case of G6A C12U G30A G61A A64U U69C A75U, the self-cleavage came out at 0.04.

Turning to G6A G24A A77U, the self-cleavage worked out at 0.05.

Take G6A A18G A45G: the self-cleavage came out at 0.05.

In the case of G6A A15U U72C, the self-cleavage was found to be 0.23.

G6A A18G U25C U31A U60A: the self-cleavage came out at 0.24.

In the case of G6A A18C A35U A45G U48A U51C, the self-cleavage stood at 0.06.

For the variant G6A A64G U78C, the self-cleavage is 0.32.

As to G6A A21G A35G A57G, the self-cleavage worked out at 0.53.

For the variant A5U U60G A64G, the self-cleavage is 0.44.

Regarding G6A C38U A56U, the self-cleavage was 0.1.

Turning to G6A A15G U25G U49C, the self-cleavage is 0.44.

For the variant G6A A35G G42C U69A, the self-cleavage was found to be 0.08.

As for A5U U54C A65G, the self-cleavage stood at 0.26.

As for G6A A13G U69C, the self-cleavage was 0.07.

With G6A A45G U49C A65G U69C U72C U80C, the self-cleavage was 0.04.

With A5U U51C U78C, the self-cleavage was 1.

G6A A18G G42A: the self-cleavage is 0.28.

Regarding G6A G10C U49C, the self-cleavage was determined as 0.08.

Take G6A G10A C23G U72C: the self-cleavage came out at 0.05.

Consider G6A A28G U41C A56G, for which the self-cleavage came out at 0.16.

For the variant G6A A35G A57G U66C, the self-cleavage was 0.25.

With G6A A45G C81U, the self-cleavage was 0.17.

On to G6A A56U U67C U80C, for which the self-cleavage came to 0.15.

Take G6A A13G A35G C38U C68A U69A: the self-cleavage was 0.07.

Take G6A A18U A45G U78C: the self-cleavage amounted to 0.24.

Consider G6A C38A A56G U69A, for which the self-cleavage was 0.07.

In the case of G6A A13U C38U, the self-cleavage was 0.37.

As to G6A A18U U31A U49C U51A U80A, the self-cleavage was 0.05.

Take G6A C23A C29A U51G U80A: the self-cleavage was determined as 0.06.

Consider G6A A21G C23U C27A A45U A57U A64G, for which the self-cleavage was 0.04.

As to G6A C40U A47U U72G, the self-cleavage was 0.08.

Values taken from the RNAGym collection of RNA variant scans (doi:10.1093/nar/gkz1192).
